The text below walks through data of paper PMC7819943, “Rice protein-binding microarrays: a tool to detect cis-acting elements near promoter regions in rice”.

Some of the results follow.

This test deals with T1, OsWOX13 (Oryza sativa, UniProt Q5QMM3 1-267).
T1 sequence: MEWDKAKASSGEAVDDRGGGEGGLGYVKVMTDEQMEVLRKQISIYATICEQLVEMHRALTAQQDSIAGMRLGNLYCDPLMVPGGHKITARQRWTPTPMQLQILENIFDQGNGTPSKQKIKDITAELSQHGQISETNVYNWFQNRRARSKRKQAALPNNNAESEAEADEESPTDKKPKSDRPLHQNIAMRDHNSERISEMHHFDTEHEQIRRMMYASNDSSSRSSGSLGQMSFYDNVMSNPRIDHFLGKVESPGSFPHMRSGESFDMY
Kind of test: protein-binding microarray (RPBM); PBS, 2% BSA, 51.3 ng/ul salmon testes DNA, 50 uM zinc acetate, 200 nM TF, 25 C, 1 h; high values mean tight binding. Conditions: protein: recombinant; tags: N-terminal polyhistidine and DsRed monomer fusion (pET32a); label: CyDye5-dUTP incorporated in the synthesized complementary strand; 3' TTTTT single-stranded linker to array surface; dsDNA, one strand shown. A digest of the protocol: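 Polyhistidine-tagged DsRed fusions of transcription factors, joined at the N-terminus, were expressed in E. coli BL21-CodonPlus and isolated on Ni–NTA. They were incubated at 200 nM for 1 h at 25 °C on a custom Agilent array, double-stranded and BSA-blocked, in PBS with 2% BSA, salmon testes DNA and 50 µM zinc acetate. The binding signal is per-feature fluorescence intensity (arbitrary units) read on an Axon 4000B scanner after washing.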
Take “CTTTGATTTATTTCAAATCTGGTTTACCTCGTAGTTTGTCCGGAGTCACCTAGTGCAG”: the binding signal was 33500 fluorescence intensity (a.u.).
With “ATAAGTCGGTCTGACTGATTGCGTCATGTAACAAACATTCCGGAGTCACCTAGTGCAG”, the binding signal is 5840 fluorescence intensity (a.u.).
In the case of “TAATAATAAAATAAATTACAAATTCCGTATGTAAACTGCGCGGAGTCACCTAGTGCAG”, the binding signal is 15200 fluorescence intensity (a.u.).
In the case of “AACTTGACTAAATTGCACTTTAGTCCACCTTTTATTACCCCGGAGTCACCTAGTGCAG”, the binding signal was 17900 fluorescence intensity (a.u.).
For “TCCTAATTAAGCACAACAATTCCTCTCTAGCTAAGCCAATCGGAGTCACCTAGTGCAG”, the binding signal is 11400 fluorescence intensity (a.u.).
To “TTTATTGGTATTGATAGTTAGGAGGTGTAATATACCCAGTCGGAGTCACCTAGTGCAG” belongs 5530 fluorescence intensity (a.u.).
Under “TAGTTATTGACAGGTCAATAGTACTGTTGGATCTCAATAACGGAGTCACCTAGTGCAG” stands 21800 fluorescence intensity (a.u.); under “TCAGTCTATCAATATAATAGTTAGCTCTTTATAGTTACTACGGAGTCACCTAGTGCAG”, 3320 fluorescence intensity (a.u.); under “ATTCAATCTCATTTGCCTGATTACAGTTAGATACTGACATCGGAGTCACCTAGTGCAG”, 26400 fluorescence intensity (a.u.).
Consider “CTCCGGCTTGATTACTTCCTGATCTCCTCCTCCCCGACGCCGGAGTCACCTAGTGCAG”, for which the binding signal was 13300 fluorescence intensity (a.u.).
As for “AGAAATTGCAGCATTTACTTGATTGGATCGCGACTGTGGACGGAGTCACCTAGTGCAG”, the binding signal is 40000 fluorescence intensity (a.u.).
With “CTTTAAATTTAACACTGAAAATTTAAATTTGGGCTAATAACGGAGTCACCTAGTGCAG”, the binding signal was 17100 fluorescence intensity (a.u.).
Consider “TATGAATTGCCAATAACCCATGGCCTCGTCGGCTCCCGTGCGGAGTCACCTAGTGCAG”, for which the binding signal is 3150 fluorescence intensity (a.u.).
On to “GTTTAAAAGTGATTGGACCTAAAGTTTAGGAGGGGTTAATCGGAGTCACCTAGTGCAG”, for which the binding signal was 14400 fluorescence intensity (a.u.).
Consider “AAGATAATGAAATTATTGACAACAATGAATTTAGTGGTGCCGGAGTCACCTAGTGCAG”, for which the binding signal is 34700 fluorescence intensity (a.u.).
With “ACACACACACCCATTAATTTACATTTACAGAGTAAACATTCGGAGTCACCTAGTGCAG”, the binding signal is 5060 fluorescence intensity (a.u.).
“TGATAAATTAATTACCAACAATAATTAATTCATCTCAAAACGGAGTCACCTAGTGCAG”: the binding signal was 42000 fluorescence intensity (a.u.).
Turning to “CCGTTTGATTTAATAATTATATGGGAGTTCAAAGTAATTCCGGAGTCACCTAGTGCAG”, the binding signal is 32600 fluorescence intensity (a.u.).
Consider “CGGTCCATTAGCGCGTGATTAATTAAGTATTAGCTATTTTCGGAGTCACCTAGTGCAG”, for which the binding signal is 23400 fluorescence intensity (a.u.).
Under “TTGAAAATCAAAATTTTAGAATTTAAATTTTAACAACTACCGGAGTCACCTAGTGCAG” stands 3280 fluorescence intensity (a.u.); under “AGTCCAAATTGTAACAATGGTAATCAAAGGTGGCTCAAGGCGGAGTCACCTAGTGCAG”, 6990 fluorescence intensity (a.u.).
Under “AACGTGACAAATATTAATTTGTCATAAGGGGAACAAAGCACGGAGTCACCTAGTGCAG” stands 12500 fluorescence intensity (a.u.).
Consider “CATGATGAATGATACTAAAATTTGACAATATTCCGGCGTCCGGAGTCACCTAGTGCAG”, for which the binding signal is 14500 fluorescence intensity (a.u.).
Regarding “AATAGACATATAAATGTAACTGTCTAAAGAATAGGGACCTCGGAGTCACCTAGTGCAG”, the binding signal was 9070 fluorescence intensity (a.u.).
In the case of “TTCTAAATTAACCTTGCACGTGATTAATGCAAATCGGATGCGGAGTCACCTAGTGCAG”, the binding signal is 18800 fluorescence intensity (a.u.).
In the case of “CCCACCCCGCGTCGCAATTAATAATTGGTCGCGACTCGCGCGGAGTCACCTAGTGCAG”, the binding signal is 5700 fluorescence intensity (a.u.).
Regarding “CCAAATTTCGACTGATCGAAACCCTAGCCCTAGGCCACCGCGGAGTCACCTAGTGCAG”, the binding signal was 5680 fluorescence intensity (a.u.).
With “GCCATCAACATTGAACTGTTGATTGCCCCTCTGCCAAGAACGGAGTCACCTAGTGCAG”, the binding signal is 8520 fluorescence intensity (a.u.).
For “AGGGAGTAATTACCAAGTGAGTTTATTGTGAAGTTTTCAACGGAGTCACCTAGTGCAG”, the binding signal was 6260 fluorescence intensity (a.u.).
For “ATGATATAAATTGTAGGAGTTACATTGCAATTATGCTAGTCGGAGTCACCTAGTGCAG”, the binding signal is 9860 fluorescence intensity (a.u.).
With “TTGATAAACACAGTGACTGACTACGAATATTAAACTCTGTCGGAGTCACCTAGTGCAG”, the binding signal was 7060 fluorescence intensity (a.u.).
Regarding “GGCCTGACAGGCCCTGACAGCATTTGAACCGGGACTAAAGCGGAGTCACCTAGTGCAG”, the binding signal was 14900 fluorescence intensity (a.u.).
Turning to “GGTTAATTATATGTGTGCGCGCCATGTTTGTCATTGTTAACGGAGTCACCTAGTGCAG”, the binding signal was 28800 fluorescence intensity (a.u.).
In the case of “GGCACTATCAACACGATTTGATTAAGTTGAACAACCTTCCCGGAGTCACCTAGTGCAG”, the binding signal was 6450 fluorescence intensity (a.u.).
Consider “GTAGCTCTTAATTGTTGGGTCAGAGAAGAAGTCATCTTCACGGAGTCACCTAGTGCAG”, for which the binding signal was 3580 fluorescence intensity (a.u.).
On to “TCACAAATTTACAAAATTTTATCCTCAAATTTATGTTGAACGGAGTCACCTAGTGCAG”, for which the binding signal was 13400 fluorescence intensity (a.u.).
Take “GATACTAATTATAAATATTAAGTGTAGACTATTAATAAAACGGAGTCACCTAGTGCAG”: the binding signal is 6430 fluorescence intensity (a.u.).
In the case of “TCGTAAATTAATTATTAATAATATACTAATGGTATCCCCACGGAGTCACCTAGTGCAG”, the binding signal was 53900 fluorescence intensity (a.u.).
For the sequence “ACTGTAAATTGCGAGACGAATCTTTTGAGCCTAATTATGCCGGAGTCACCTAGTGCAG”, the binding signal is 16400 fluorescence intensity (a.u.).
Under “ATATAATTACAATACAATCGTAGTGTAATTACACTGTAACCGGAGTCACCTAGTGCAG” stands 14800 fluorescence intensity (a.u.); under “TCGACTTTGATTTGTACGATTGATTCCTTGAGTATATGTTCGGAGTCACCTAGTGCAG”, 23900 fluorescence intensity (a.u.).
With “TTTTGATGGGGAGACATGGATAATTGGTGACTGCTCGATGCGGAGTCACCTAGTGCAG”, the binding signal was 26000 fluorescence intensity (a.u.).
